In paper PMC7782513 one finds binding data, which are given here for three substances.

Amino acid sequences for entries named in this document (tags omitted). A change or cut given only in a name is not applied to a line headed by its entry. Chains listed by the source or under a name are the forms on record and can include a tag or linker.
UniProt P48431: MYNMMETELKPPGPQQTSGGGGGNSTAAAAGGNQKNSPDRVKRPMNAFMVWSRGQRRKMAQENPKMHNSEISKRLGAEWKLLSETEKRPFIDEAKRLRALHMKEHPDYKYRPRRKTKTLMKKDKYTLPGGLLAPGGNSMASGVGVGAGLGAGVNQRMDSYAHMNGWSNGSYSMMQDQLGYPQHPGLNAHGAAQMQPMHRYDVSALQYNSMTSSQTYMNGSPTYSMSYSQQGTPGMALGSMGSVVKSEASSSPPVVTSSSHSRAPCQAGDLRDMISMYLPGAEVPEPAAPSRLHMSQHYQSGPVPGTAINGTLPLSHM
His-tagged SOX2 K42A, R43A, K115A triple mutant (SOX2x3Mut) (P48431, form named): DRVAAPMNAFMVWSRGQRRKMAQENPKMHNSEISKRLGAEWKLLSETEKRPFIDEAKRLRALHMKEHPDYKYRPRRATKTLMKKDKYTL
UniProt O00629: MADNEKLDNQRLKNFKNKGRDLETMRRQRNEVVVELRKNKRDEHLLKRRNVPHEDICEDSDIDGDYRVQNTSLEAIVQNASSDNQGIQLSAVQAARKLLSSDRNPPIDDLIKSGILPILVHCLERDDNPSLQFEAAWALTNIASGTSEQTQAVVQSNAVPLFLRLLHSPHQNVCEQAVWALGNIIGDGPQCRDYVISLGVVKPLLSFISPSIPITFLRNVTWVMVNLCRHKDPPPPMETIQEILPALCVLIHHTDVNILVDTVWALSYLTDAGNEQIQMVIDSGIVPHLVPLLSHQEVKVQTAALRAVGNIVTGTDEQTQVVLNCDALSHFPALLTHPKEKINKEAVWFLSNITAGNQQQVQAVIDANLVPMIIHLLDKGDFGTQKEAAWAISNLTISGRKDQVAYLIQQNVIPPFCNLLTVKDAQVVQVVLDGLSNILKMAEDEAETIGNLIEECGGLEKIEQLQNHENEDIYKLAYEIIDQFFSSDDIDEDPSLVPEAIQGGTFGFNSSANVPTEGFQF

These are yes or no findings as the source states them, for the method shown. For some assays here: Binding seen in cells or lysates may run through a third protein. Some results given as binding are weak or reduced against the parent protein; the word gives no strength.

Assay [1] concerns the target HA-tagged full length SOX2 (human) (UniProt P48431). Briefly: co-IP; HEK293T cells co-transfected with Flag-tagged importin and HA-tagged SOX2; anti-HA agarose, NP-40 lysis buffer (280 mM NaCl), ten washes, eluted with HA peptide; blots for HA and Flag.
Assay [2] has as its target HA-tagged full length SOX2x3Mut (K42A, R43A, K115A) (human) (UniProt P48431). The assay is described as above.
Assay [3] has as its target His-tagged SOX2 K42A, R43A, K115A triple mutant (SOX2x3Mut) (human) (UniProt P48431). The assay can be described thus: pull-down; 10 µM His-tagged SOX2 or mutant immobilised on Ni-NTA resin, 20 µM IMPα in 300 µL; washed three times with 50 mM phosphate pH 8.0, 300 mM NaCl, 20 mM imidazole; eluted through TEV cleavage; SDS-PAGE; both purified.
The target is the same in assay [4]. The assay can be described thus: MST; labelled SOX2 at 50 nM (his-tag labelling kit RED-tris-NTA), unlabelled importins titrated; 20 mM HEPES, 150 mM NaCl, pH 8.0; 25 °C; single binding model; both purified.

On to “Flag-tagged IMPα3 (from UniProt O00629 1-521)”, for which the binding entry in assay [1] was “binds”; in assay [2], “no binding”.
For “Flag-tagged IMPα7 (from UniProt O60684 1-536)”, the binding result in assay [1] is reported as “no binding”.
For “IMPα3 lacking the IMPβ-binding domain (residues 64-521) (from UniProt O00629 64-521) (domain or fragment)”, the binding result is given as “no binding (tested: 20 µM of IMPα)” in assay [3] and “no binding” in assay [4].
